Experimental findings from the supplement of paper PMC11417369 are described below.

Some of the results follow.

This test deals with PF3D7_0420300 AP2 domain 1 (GST-tagged). Kind of test: gcPBM binding intensity (ln(normalized median fluorescence intensity)); higher = stronger DNA binding. A digest of the protocol:
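DNA-binding domains from P. falciparum, fused to GST and produced in E. coli, were put on an Agilent 4 × 180k double-stranded probe array for 1 h in 1× PBS holding 1% milk, 0.2 mg/ml BSA, 0.5% salmon testes DNA and 0.03% Triton X-100. Probes were primer-extended, 36 bp long and drawn from intergenic genomic regions, with negative controls included. After Alexa488 anti-GST antibody detection and a 488 nm scan, binding intensity was set as the highest Masliner-normalised natural-log median intensity across replicate spots of either probe orientation.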
“ATATATATATGAATCACACACAAAAAATATAGAGAT [CACACA_site3913]”: the “gcPBM binding intensity (ln)” value came out at 9.9. With “AATGAAAAGAAATAATAAATAAATGATGACCAGCTG [GTGCAC_negctrl_site398]”, the “gcPBM binding intensity (ln)” value came to 9.49.

As to “TGATTATCCTTCAGGAGTACATATAATATAATATAT [XGTACX_site1479]”, the “gcPBM binding intensity (ln)” value was determined as 9.11. As for “ACCTTTAATAAATACACACACATAAAAAAAATATAT [CACACA_site5086]”, the figure is 10. The same measure for “TAATGTATTATTTAATGTACTTAAAAAATAAATAAA [XGTACX_site3296]”: 8.95. As for “AATGAACAGACGAGCACACACACACCCATATATATA [CACACA_site1018]”, the figure is 10.1. Take “TATTATATGAATAATTGTACGAAATTTAAAAGACAA [XGTACX_site7558]”: the “gcPBM binding intensity (ln)” value turned out to be 9.16. As for “CACAAATATATACATACACACATATATACGCATATA [CACACA_site395]”, the figure is 9.72; as for “GGGGAGCTATCTCCTGCACACACAATTTTTTTTTTT [CACACA_site8703]”, 9.43; as for “AACCAAATTTCACCATGTACATATTGATAAATATAT [XGTACX_site1374]”, 9.26. “ATATGATTTGGATGTAGTACATATTTTTTTATGTTT [XGTACX_site1929]”: the “gcPBM binding intensity (ln)” value came to 9.42. For the sequence “GCACCAAAAAAAAGACGTACAGTTATATTAAAATAG [XGTACX_site8926]”, the “gcPBM binding intensity (ln)” value was found to be 9.06.

Consider “AAATGAACAAGTGGCACACACACATTCTAACTAATT [CACACA_site3203]”, for which the “gcPBM binding intensity (ln)” value is 9.8. Take “TATGTTTTTCGGTATGCATGCATATGCTTAATAATA [TGCATGCA_site184]”: the “gcPBM binding intensity (ln)” value came out at 9.19. As to “AATATTAAACAAATGAAAAAAAAATATATATTATAT [CACACA_negctrl_site742]”, the “gcPBM binding intensity (ln)” value amounted to 9.36. On to “AATATATATATGATTATATATATATATATATATATA [GTGCAC_negctrl_site290]”, for which the “gcPBM binding intensity (ln)” value amounted to 8.86. The same measure for “AAAATAACACAAATGGGTACATATTATATTAAATAA [XGTACX_site7027]”: 9.46; for “TTTAATTAAAATATATGTACATATATATATATATAT [XGTACX_site4517]”: 9.12.

With “ATATATTCATTTTTATGTACGTAAATTGTAAATTGG [XGTACX_site8242]”, the “gcPBM binding intensity (ln)” value was 9.16. The same measure for “TGCATTATTTTATGAAGTACATATGAACAAAAAATT [XGTACX_site2185]”: 9.07.

“AAAATAATAATAAAAAGTACATGTGTATATAATAAA [XGTACX_site754]”: the “gcPBM binding intensity (ln)” value turned out to be 9.6.

Turning to “AAAGAAGGTAAACACACACACACACCGACAAAAAAA [CACACA_site9255]”, the “gcPBM binding intensity (ln)” value turned out to be 10.3. The same measure for “AAATTATCCAAAAATTGTACTTAAAACAACATAAAA [XGTACX_site6238]”: 9.16; for “TTTCTCTTATTCCAATCTATAATAAGTATCAATATT [CACACA_negctrl_site179]”: 9.13; for “ACCATTTGTAGGTAAACACACATTATTCTTAATATC [CACACA_site5453]”: 9.36.

As for “AAAAAAAAAAAGCACACACACATATGCGTATATATA [CACACA_site954]”, the “gcPBM binding intensity (ln)” value came to 9.79. For “TTTTTTTCGTATATTACACACTATATATAGAAATTA [CACACA_site298]”, the “gcPBM binding intensity (ln)” value amounted to 9.32. The same measure for “GGAGAAAAAAAAAAAAAACACACGGTACATTCAAAG [CACACA_site1503]”: 9.55; for “TTATTAAAGGAAAAATGTACATATAAATGAATATGT [XGTACX_site23]”: 9.33; for “AAAAAATGTAAATATAAACAACCAAAGGGGGTATAC [GTGCAC_negctrl_site465]”: 9.7. As for “TTAAAGTATAACTGTACATGCGAGTAAAAGAATGAC [TGCATGCA_site899]”, the figure is 9.62; as for “ATAATATTTTATGGTTGTACTTTTAGTTCTTTTTTT [XGTACX_site5756]”, 9.4; as for “ATTAAATATATTTTGCGTACACAAAAAAATACGTTC [XGTACX_site3862]”, 9.15. Take “TACGTGAAGTTATATACACACATAAATATGTCTGTA [CACACA_site7463]”: the “gcPBM binding intensity (ln)” value was found to be 9.33. As for “GAAAAAAAACACATTGTGCACTTTTCCTTAAGTATA [GTGCAC_site9475]”, the figure is 9.13; as for “AATCAAAATATATCTACACACATTTAAGTAACACAT [CACACA_site3482]”, 9.66; as for TTATAATAAAGAGGAGTGCAAAAAAAAAAAAAAAAA, 8.86. As for “TAAATATCAAAACACACACACAAAAGTGAATAAATA [CACACA_site3762]”, the figure is 9.97; as for “TATTAATTAAACCATACACACATAACTTTTTTATAA [CACACA_site6526]”, 9.6. The same measure for ATTTTTTTCTTAGGAGTGCACTTATATTTATTTTAT: 9.52; for “TATAAGGTGTCCTATACACACTCCAATAAATATATA [CACACA_site2091]”: 9.18; for “AGGAACATAAGCAATGTATAAACATAAAACTATAAT [CACACA_negctrl_site1832]”: 9.53. For “TAAAGAGAAAAACATACACACACAACAAAATATGTA [CACACA_site8872]”, the “gcPBM binding intensity (ln)” value stood at 10. Turning to “AAAAAAAAAAAAAACACACACACACCCACATATACA [CACACA_site2663]”, the “gcPBM binding intensity (ln)” value was found to be 10.1. The same measure for “ACAAGGAATATATAAGATAATTTTAAATATAACACG [CACACA_negctrl_site1734]”: 9.43; for “ATATATATAATTTTTACACACGCAATAAATATATAT [CACACA_site218]”: 9.54. Turning to “TCAAAAGAATAATTGGTGCAAATTATATAATATAAT [GTGCAC_site9804]”, the “gcPBM binding intensity (ln)” value was 9.2. Turning to “ATATTTATGGAAAAAGAACACACAATCAAACAAAAA [CACACA_site9233]”, the “gcPBM binding intensity (ln)” value is 9.82. As for “CTTTTTTATATCTCTACACACATTTATAACCATTTG [CACACA_site4897]”, the figure is 9.69. As for “TATTTTAAAAAAAAAAGTACACATAATATATATAAC [XGTACX_site5416]”, the figure is 9.41.

In the case of “ATACATTTATTGTATTGTACATAATATTATATATTC [XGTACX_site7115]”, the “gcPBM binding intensity (ln)” value is 9.26. As for “TAATATAATAGAAGTGTACACACATATTTATGGGTG [CACACA_site9023]”, the figure is 9.72; as for TAATATAATGATGCAGTGCATATGTTAAAATGAAAA, 9.25; as for “AATAATTTTTAAATATAAACATTTTTTTTTTTTTTT [GTGCAC_negctrl_site532]”, 8.77.

“ATTAAATGCACATATACACACACCCAATTTTAAGTT [CACACA_site3049]”: the “gcPBM binding intensity (ln)” value was 9.96. As for “ATAAAATATTAGACATTTATTAATATTACACATATC [XGTACX_negctrl_site364]”, the figure is 9.25; as for “ACAAAATAAACCACGTGTACAAATTTATAATGTGTA [XGTACX_site1153]”, 9.36.
